# Source: PubChem BioAssay AID485294 (National Center for Advancing Translational Sciences (NCATS), 2010)
# Among all 370,000 compounds or so, about 150 (0.041%) were called active. The shares of active, inactive and inconclusive entries below differ from those in the screen. Calls follow the shape of the dose curve; as a rule, active = well fitted inhibition curve with a large enough effect; inconclusive = small, poorly fitted or top-dose-only effect; inactive = flat fitted curve, though single readings scatter. Potencies of inconclusive entries are left out as doubtful fits.
# Biological target: Beta-lactamase (Escherichia coli (strain K12)) (UniProt P00811)
# Experiment: qHTS Inhibitors of AmpC Beta-Lactamase (assay with detergent); also: nearly all actives have a fitted effect of over 25% in size;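 as to activity change, negative = inhibition: 0% = no-compound wells and -100% = no-enzyme wells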
# Settings: AmpC hydrolysis of nitrocefin, absorbance 480 nm, 0.01% Triton; activity change, negative = inhibition: at 114 µM (top of the series)
# Summary of the method: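 20 mM phosphate pH 7.0 + 0.01% (detergent screen) or 0.0001% Triton X-100; 5.3 nM AmpC reagent; cpd preinc 15 min RT; nitrocefin (800 uM stock) to start; A480 q20 s × 4 min; Activity was normalised to no-enzyme and no-compound control wells.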
# Potency is read from the fitted curve at half-maximal effect; tags tell the direction and shape of the fitted curve.
# UniProt P00811, sequence (P00811 whole entry, looked up): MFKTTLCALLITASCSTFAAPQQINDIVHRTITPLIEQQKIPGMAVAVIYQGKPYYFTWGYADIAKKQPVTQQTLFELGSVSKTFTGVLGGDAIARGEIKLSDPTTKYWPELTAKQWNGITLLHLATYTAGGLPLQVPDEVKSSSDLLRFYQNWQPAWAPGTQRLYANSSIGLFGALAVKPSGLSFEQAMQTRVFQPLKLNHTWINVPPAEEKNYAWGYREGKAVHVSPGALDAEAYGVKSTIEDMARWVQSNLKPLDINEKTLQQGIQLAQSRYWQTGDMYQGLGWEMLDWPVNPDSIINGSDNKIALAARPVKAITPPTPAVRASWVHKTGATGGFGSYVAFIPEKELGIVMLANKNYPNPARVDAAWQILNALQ
SMILES,Potency,"activity change, negative = inhibition"
Cc1ccc(N2C(=O)C3CCCN3C2=S)c(C)c1 (stereo not drawn),"inconclusive [inhibitor, single point]",
Nc1nc(Br)c2ccccc2c1-c1ccccc1,,inactive: -12.5%
O=C(NNC1=C(C(=O)C(F)(F)F)CCC1)c1ccc(Cl)cc1,"inconclusive [inhibitor, full curve, poor fit]",
Cc1cc([N+](=O)[O-])ccc1NC(=O)CCC(=O)N1CCCC1,"inconclusive [inhibitor, partial curve, poor fit]",
C[N+]1(CCC(=O)c2ccccc2)CCCCC1,"inconclusive [inhibitor, partial curve]",
CCOc1cccc(/C(O)=C2/C(=O)C(=O)N(CCOC)C2c2ccc(C)o2)c1 (stereo not drawn),"inconclusive [inhibitor, full curve, poor fit]",
Cc1nn(Cc2ccccc2Cl)c(C)c1C(=O)NCc1ccco1,"inconclusive [inhibitor, partial curve, poor fit]",
COc1ccc(F)cc1S(=O)(=O)NCC(c1ccc2c(c1)OCO2)N1CCN(C)CC1 (stereo not drawn),"inconclusive [inhibitor, full curve, poor fit]",
O=C(NCC1COc2ccccc2O1)c1ccc(NC(=O)C(c2ccccc2)c2ccccc2)cc1 (stereo not drawn),,inactive: 5.11%
CCCCn1c(=O)[nH]c(=O)c2c1nc(COc1ccc(C#N)cc1)n2CCC,"inconclusive [inhibitor, partial curve]",
COCc1[nH]nc2c1C(c1ccc(OC)c(OC)c1)C(C#N)=C(N)O2 (stereo not drawn),"inconclusive [inhibitor, partial curve, poor fit]",
CC(=O)c1ccc(N2CCN(C(=S)NCc3ccco3)CC2)cc1,,inactive: -14.8%
C=CCSc1ccccc1C(=O)Nc1ncn[nH]1,"inconclusive [inhibitor, full curve]",
COc1ccc(-n2c(CCC(=O)O)ccc2-c2ccccc2)cc1,inactive,
COc1ccc(Cl)c2sc(N3CCN(C(C)=O)CC3)nc12,"inconclusive [inhibitor, full curve, poor fit]",
COc1ccc(-c2nn(CC(=O)N3CCCCC3)c(=O)c3ccccc23)cc1,"inconclusive [inhibitor, full curve, poor fit]",
CCOC(=O)c1c(C)[nH]c(C)c1S(=O)(=O)N(C)CC(=O)Nc1ccccc1OC,,inactive: 0.333%
COc1ccc(CNC(=O)COC(=O)/C=C/c2ccc(S(=O)(=O)N3CCOCC3)cc2)cc1,"inconclusive [inhibitor, full curve, poor fit]",
CCC(CC)C(=O)NCCc1cc2cc(C)c(C)cc2[nH]c1=O,"inconclusive [inhibitor, full curve, poor fit]",
O=C(NCc1ccccc1F)C(c1ccccc1)c1ccccc1,"inconclusive [inhibitor, full curve, poor fit]",
CC(=O)c1ccc(NC(=O)CN2C(=O)c3cccnc3Sc3ccccc32)cc1,,inactive: 0.628%
Cc1ccc(-c2nc(CS(=O)CC(=O)NCc3ccccn3)c(C)o2)cc1 (stereo not drawn),,inactive: -9.51%
CC(=O)c1cccc(NC(=S)NC(=O)c2ccccc2C)c1,"inconclusive [inhibitor, single point]",

SMILES,Potency,"activity change, negative = inhibition"
CC(C)CC(NC(=O)/C(=C/c1ccco1)NC(=O)c1ccc(Br)o1)C(=O)O (stereo not drawn),,inactive: -5.85%
OCCC1CN(Cc2cccc3nccnc23)CCN1C1CCCC1 (stereo not drawn),,inactive: 5.73%
COc1ccc(Cn2c(=O)c3oc4ccccc4c3n(CC(=O)Nc3cc(C)cc(C)c3)c2=O)cc1,,inactive: -2.07%
Cc1c2cnn(CC(=O)NCCc3ccccc3)c(=O)c2c(C)n1Cc1ccccc1Cl,,inactive: -9.53%
CCCCN(C(=O)c1c(C)noc1C)c1c(N)n(CCC)c(=O)[nH]c1=O,"inconclusive [inhibitor, single point]",
CC1Oc2ccccc2N(Cc2cccnc2)C1=O (stereo not drawn),"inconclusive [inhibitor, partial curve, poor fit]",
CC(C)CN(C(=O)COC(=O)c1ccc2ccccc2n1)C1CCS(=O)(=O)C1 (stereo not drawn),"inconclusive [inhibitor, single point]",
CCC(c1nnnn1CCc1ccccc1)N1CCN(c2ccc(OC)cc2)CC1 (stereo not drawn),"inconclusive [inhibitor, full curve, poor fit]",
O=C(NCc1ccccc1Cl)C(=O)NCC(c1ccco1)S(=O)(=O)c1cccs1 (stereo not drawn),,inactive: 3.17%
Cc1cc(C)nc(Nc2nc3ccccc3s2)n1,,inactive: -1.71%
S=C(Nc1ccc(Cl)cc1)N1CCCC1,"inconclusive [inhibitor, full curve]",
COc1cc(CCC(=O)OCC(=O)Nc2ncc(Cl)cc2Cl)cc(OC)c1OC,"inconclusive [inhibitor, partial curve, poor fit]",
CCOc1ccc(-c2nnn(CC(=O)Nc3cc(OC)cc(OC)c3)n2)cc1OCC,"inconclusive [inhibitor, full curve, poor fit]",
CCOc1ccccc1C1C(C#N)=C(N)Nc2onc(-c3ccccc3)c21 (stereo not drawn),"inconclusive [inhibitor, full curve, poor fit]",
CCc1ccc(NC(=O)Cn2cc([N+](=O)[O-])nc2C)cc1,"inconclusive [inhibitor, full curve, poor fit]",
Cc1ccc2nc(-c3ccc(NC(=O)Cc4cccs4)cc3)[nH]c2c1,"inconclusive [inhibitor, partial curve, poor fit]",
Cn1c(=O)[nH]c(=O)c2c1nc(N/N=C/C(Br)=C/c1ccccc1)n2CCO,,inactive: 2.1%
S=c1[nH]nc(-c2cccs2)n1/N=C/c1cccs1,"inconclusive [inhibitor, full curve, poor fit]",
O=C(Cc1ccccc1[N+](=O)[O-])N1CCOCC1,"inconclusive [inhibitor, partial curve, poor fit]",
Cc1cc2c(C)ccc(C)c2nc1SCC(=O)c1cccs1,"inconclusive [inhibitor, partial curve, poor fit]",
Cc1nn(Cc2ccccc2Cl)c(Cl)c1C(=O)OCC(=O)NCc1ccco1,"inconclusive [inhibitor, full curve, poor fit]",
Cc1ccc2cc(CN(C(=O)C3CCCO3)C3CCCCC3)c(=O)[nH]c2c1 (stereo not drawn),"inconclusive [inhibitor, partial curve]",
CCOc1ccc(Cl)cc1CNc1nnnn1CC,"inconclusive [inhibitor, full curve, poor fit]",

SMILES,Potency,"activity change, negative = inhibition"
CCc1cccc2c(C(=S)N3CCCC3)c[nH]c12,,inactive: -6.87%
COc1cc2c(cc1OC)[C@@H](Cc1ccc(OCCC#N)cc1)N(C)CC2,,inactive: -1.63%
CC(/C=C/c1ccco1)=N\NC(=O)c1cccc(Cl)c1,,inactive: -5.13%
CCOP(=O)(c1ccc(N(C)C)cc1)C(O)c1c(Cl)cccc1Cl (stereo not drawn),"inconclusive [inhibitor, partial curve]",
CC(C)OC(=O)C1C(=O)CC(C)(O)C(C(=O)OC(C)C)C1c1ccc(F)cc1 (stereo not drawn),"inconclusive [inhibitor, partial curve]",
C=CCn1c(C)c(C(C)=O)cc(NC(=O)c2ccccc2)c1=O,"inconclusive [inhibitor, full curve, poor fit]",
COc1ccc(NC(=O)CCNC(=O)Cn2ccc3ccccc3c2=O)cc1Cl,"inconclusive [inhibitor, full curve, poor fit]",
CSc1ccccc1C(=O)Nc1ccc2c(c1)OCCO2,,inactive: 6.13%
Cc1cccc(-n2c(SCC(=O)Nc3ccccc3Cl)nc3n[nH]c(C)c3c2=N)c1,,inactive: 1.61%
CC(=O)NC(CC(=O)OCC(=O)N1CCN(S(=O)(=O)c2ccc(Cl)cc2)CC1)c1ccccc1 (stereo not drawn),"inconclusive [inhibitor, full curve]",
CCNc1nc(SCC(=O)Nc2ccccc2)nc(N2CCOCC2)n1,"inconclusive [inhibitor, partial curve, poor fit]",
O=C(CSc1ccccn1)c1ccc2c(c1)OCO2,"inconclusive [inhibitor, full curve]",
CN(CC(=O)Nc1ccc(F)cc1)C(=O)COc1ccc(C(=O)c2ccccc2)cc1,"inconclusive [inhibitor, full curve]",
CN=c1scc(-c2cccs2)n1/N=C/c1ccccc1O,"inconclusive [inhibitor, partial curve]",
COc1cccc(CNC(=O)c2cc(-c3cccs3)nc3ccccc23)c1,,inactive: 12.8%
C=CCN(c1ccc(C(N)=O)cc1)S(C)(=O)=O,"inconclusive [inhibitor, full curve, poor fit]",
CC(C)CN(C(=O)c1ccc(S(=O)(=O)N2CCCC2)cc1)C1CCS(=O)(=O)C1 (stereo not drawn),"inconclusive [inhibitor, full curve, poor fit]",
COc1nc2cc(C)ccc2cc1-c1noc(-c2cccnc2)n1,"inconclusive [inhibitor, full curve, poor fit]",
O=C(Nc1cc(C(F)(F)F)ccc1N1CCOCC1)c1cncc(Br)c1,"inconclusive [inhibitor, full curve, poor fit]",
C=C(C)C1CC=C(C)/C(=N/NC(=O)COc2ccccc2Cl)C1 (stereo not drawn),"inconclusive [inhibitor, single point]",
CCn1c(SCC(=O)NCc2ccccc2)nnc1-c1ccccc1O,"inconclusive [inhibitor, full curve]",
NNC(=O)c1cc(Br)cs1,"inconclusive [inhibitor, single point]",
